Data on 56 molecules can be found in paper PMC4336329 (PLoS ONE, 2015).

Each structure is given as a SMILES string. In all, about 310,000 compounds went through this assay and about 14,000 (4.5%) showed an effect of 50% or more. The effect is printed as a negative number. The list shows a part of the results.
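Further: peak tail current of the secondary pulse compared with the same well before compound.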

human ether-à-go-go-related gene (hERG) potassium channel, sequence (Q12809 whole entry, looked up): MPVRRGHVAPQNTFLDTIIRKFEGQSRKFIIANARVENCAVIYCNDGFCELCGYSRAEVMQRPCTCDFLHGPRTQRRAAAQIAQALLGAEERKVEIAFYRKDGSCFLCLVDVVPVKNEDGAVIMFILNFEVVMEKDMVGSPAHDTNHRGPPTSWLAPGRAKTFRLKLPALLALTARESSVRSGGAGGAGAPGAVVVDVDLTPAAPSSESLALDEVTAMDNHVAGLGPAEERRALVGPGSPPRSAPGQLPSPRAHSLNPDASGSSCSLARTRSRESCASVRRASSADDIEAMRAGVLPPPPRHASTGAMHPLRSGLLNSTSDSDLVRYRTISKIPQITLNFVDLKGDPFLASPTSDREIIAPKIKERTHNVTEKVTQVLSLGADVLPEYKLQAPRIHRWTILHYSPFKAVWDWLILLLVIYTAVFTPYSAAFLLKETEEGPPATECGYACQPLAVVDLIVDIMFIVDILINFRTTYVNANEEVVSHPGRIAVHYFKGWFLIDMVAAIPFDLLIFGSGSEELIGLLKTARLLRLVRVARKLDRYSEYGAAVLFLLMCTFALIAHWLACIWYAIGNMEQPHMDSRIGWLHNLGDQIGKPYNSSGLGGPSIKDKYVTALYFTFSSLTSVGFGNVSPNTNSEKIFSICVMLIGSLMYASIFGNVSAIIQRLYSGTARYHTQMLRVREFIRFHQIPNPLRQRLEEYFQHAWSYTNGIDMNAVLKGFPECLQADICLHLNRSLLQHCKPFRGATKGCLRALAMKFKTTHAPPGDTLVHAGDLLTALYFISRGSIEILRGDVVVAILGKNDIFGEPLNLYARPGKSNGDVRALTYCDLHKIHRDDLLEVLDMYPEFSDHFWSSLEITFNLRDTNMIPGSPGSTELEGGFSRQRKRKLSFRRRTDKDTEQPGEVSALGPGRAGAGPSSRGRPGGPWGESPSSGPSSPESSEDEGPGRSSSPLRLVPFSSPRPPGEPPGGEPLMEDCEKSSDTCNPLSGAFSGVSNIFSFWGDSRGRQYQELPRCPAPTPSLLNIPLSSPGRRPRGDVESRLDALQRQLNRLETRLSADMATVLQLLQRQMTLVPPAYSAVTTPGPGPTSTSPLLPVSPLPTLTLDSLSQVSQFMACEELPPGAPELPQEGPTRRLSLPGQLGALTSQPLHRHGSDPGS

This assay concerns the target human ether-à-go-go-related gene (hERG) potassium channel (human, UniProt Q12809). Nature of the assay: primary screen, population patch clamp on CHO cells stably expressing hERG.
As for `COc1cccc(NC(=O)CSc2nc3ccccc3c(=O)n2CCCC(=O)N2CCCC2)c1`, the “hERG current change (%, negative = inhibition) at 10uM” value is -67.3%. Regarding `Cc1cc(C)n2nc(SCC3COc4ccccc4O3)nc2n1` (centres unmarked), the “hERG current change (%, negative = inhibition) at 10uM” value is -44%. In the case of `Cc1ccc(N(Cc2ccccc2)C(=O)c2cc(S(=O)(=O)N3CCOCC3)ccc2C)cc1` it was -27.4%; in that of `CC(=O)Nc1nc2ccccc2n1CCN(C)C`, -6.46%.

As to `O=C(Nc1ccc2[nH]c(=S)sc2c1)c1ccccc1`, the “hERG current change (%, negative = inhibition) at 10uM” value was determined as 8.9%. In the case of `COC(=O)c1c(-c2ccccc2)csc1N` it was -3.09%; in that of `COc1cccc(C(=O)NCC(=O)N2CCC3(CC2)NCCc2[nH]cnc23)c1`, -5.51%. `CS(=O)(=O)N(CC(=O)N/N=C/c1ccccn1)c1ccc(Oc2ccccc2)cc1`: the “hERG current change (%, negative = inhibition) at 10uM” value was -34.7%. In the case of `c1ccc(-c2nc3ccccc3nc2-c2ccccn2)nc1`, the “hERG current change (%, negative = inhibition) at 10uM” value came out at 3.64%. In the case of `COC(=O)C1C(=O)c2c(C)noc2CC1(C)C` (centres unmarked) it was 25.2%. With `CC(C)c1ccc(/C=C2\NC(=O)NC2=O)cc1` the figure was 5.2%; with `Cc1cccc(C)c1NC(=O)CN(C)C(=O)c1cc(S(=O)(=O)N(C)C)ccc1N1CCCC1`, 14.9%.

For the molecule `CCOc1ccc(S(=O)(=O)Nc2cc(OC)c(OC)cc2C(=O)O)cc1`, the “hERG current change (%, negative = inhibition) at 10uM” value came out at 3.94%. For `CCN(CC)S(=O)(=O)c1ccc(N2CCOCC2)c(NC(=O)C2CCCC2)c1`, the “hERG current change (%, negative = inhibition) at 10uM” value is on record as -1.03%. For `CC1(NC(=O)c2cc(-c3cccs3)nn2-c2ccccc2)CCS(=O)(=O)C1` (centres unmarked), the “hERG current change (%, negative = inhibition) at 10uM” value is listed as -11.9%. For `CCN(CC)C(=O)c1cn(C)c2ccc(S(=O)(=O)N(CC)CC)cc2c1=O`, the “hERG current change (%, negative = inhibition) at 10uM” value came out at 1.84%. For `O=C1CCc2cc(S(=O)(=O)N3CCCCC3)cc3c2N1CCC3`, the “hERG current change (%, negative = inhibition) at 10uM” value is 2.3%. Take `COC(=O)[C@]1(Cc2ccccc2)N[C@H](c2ccc(-c3ccc(Cl)c(Cl)c3)cc2)[C@@H]2C(=O)N(C)C(=O)[C@@H]21.O=C(O)C(F)(F)F`: the “hERG current change (%, negative = inhibition) at 10uM” value came out at 16.3%. Turning to `Cc1cc(S(=O)(=O)Nc2ccc(C(=O)NCCCn3ccnc3)cc2)ccc1F`, the “hERG current change (%, negative = inhibition) at 10uM” value was found to be 8.81%. With `COC(=O)c1c(SCc2ccc(C#N)cc2)nc(=O)[nH]c1C` the figure was -76.9%. For the molecule `Cc1cc(OC(=O)c2ccc(S(=O)(=O)N(C)C)cc2)cc(=O)o1`, the “hERG current change (%, negative = inhibition) at 10uM” value was 2.13%. On to `O=C(Cc1ccccc1)NC(NC(=S)Nc1cc(Cl)ccc1Cl)C(Cl)(Cl)Cl` (centres unmarked), for which the “hERG current change (%, negative = inhibition) at 10uM” value is on record as 17.2%. In the case of `Nc1nc2n(n1)C(c1ccccc1Cl)CC(c1ccc(F)cc1)N2` (centres unmarked), the “hERG current change (%, negative = inhibition) at 10uM” value was -25.1%. With `CCc1ccc(CN2CCCC(CNC(=O)c3cccc(OC)c3OC)C2)cc1` (centres unmarked) the figure was -54.1%; with `CC(=O)Nc1ccc(CCc2nc3ccccc3[nH]2)cc1`, 8.89%. For `COc1ccc(CCNCc2ccncc2)cc1.O=C(O)C(=O)O`, the “hERG current change (%, negative = inhibition) at 10uM” value is recorded as -13.7%. Take `COc1ccc(O)c(-c2cc(-c3ccc(F)cc3)n[nH]2)c1`: the “hERG current change (%, negative = inhibition) at 10uM” value is reported as -0.00292%. In the case of `CCOc1cc(CO)cc(Br)c1OCC(=O)Nc1ccccc1C` it was -8.23%; in that of `O=C(Cn1c(=S)[nH]c2ccccc2c1=O)N1CCN(c2ccc(F)cc2)CC1`, 2.95%; in that of `CCc1ccc(NC(=O)c2cc(S(=O)(=O)N3CCc4ccccc43)cn2C)cc1`, 2.37%. In the case of `CN(CC(=O)Nc1c(Cl)cccc1Cl)C(=O)CNC(=O)C1CCCCC1`, the “hERG current change (%, negative = inhibition) at 10uM” value was 29.9%. In the case of `COC(=O)C1=C(c2cc3ccccc3s2)C[C@@H]2CC[C@H]1N2C(=O)NCc1ccc(C(F)(F)F)cc1`, the “hERG current change (%, negative = inhibition) at 10uM” value is reported as -8.39%. Turning to `CCn1cc(C(=O)Nc2cc(C)ccc2C)c(=O)c2ccc(C)nc21`, the “hERG current change (%, negative = inhibition) at 10uM” value turned out to be 7.54%.

As for `CCO.Cc1nn(-c2ccccn2)c2c1C(c1ccsc1)C1=C(CCCC1=O)N2` (centres unmarked), the “hERG current change (%, negative = inhibition) at 10uM” value is -16.1%. Turning to `CCOC(=O)c1ccc(NC(=O)CCC2COc3ccccc3O2)cc1` (centres unmarked), the “hERG current change (%, negative = inhibition) at 10uM” value is recorded as -0.575%. Consider `COCCn1c(-c2ccccc2)nc2ccccc21`, for which the “hERG current change (%, negative = inhibition) at 10uM” value is reported as -2.7%. As for `Cc1ccc(S(=O)(=O)N(C)CC(=O)N2CCCc3ccccc32)cc1`, the “hERG current change (%, negative = inhibition) at 10uM” value is reported as -16.1%. In the case of `CC(C)(C)NC(=O)CSc1nc(Cc2ccccc2)nc2ccccc12`, the “hERG current change (%, negative = inhibition) at 10uM” value is -8.25%.

In the case of `CCC(NC(=O)Nc1ncccc1C)(C(F)(F)F)C(F)(F)F`, the “hERG current change (%, negative = inhibition) at 10uM” value was -3.33%.

Take `CN(C)c1oc(-c2ccc(OCc3ccccc3)cc2)nc1C#N`: the “hERG current change (%, negative = inhibition) at 10uM” value is on record as 14.7%.

As for `COc1cccc(C(=O)NCCNC(=O)c2cnccn2)c1`, the “hERG current change (%, negative = inhibition) at 10uM” value was 19.5%.

Take `COCCCn1c(C)nnc1SCC(=O)NCc1ccco1`: the “hERG current change (%, negative = inhibition) at 10uM” value is given as 16.8%. As to `NC(=O)CC[C@@H]1NC(=O)[C@H](CO)NC(=O)c2cc([N+](=O)[O-])cc(I)c2NCC[C@@H](C(N)=O)NC1=O`, the “hERG current change (%, negative = inhibition) at 10uM” value is 10.9%. Consider `O=c1[nH][nH]c(-c2ccccc2)c1C=Nc1ccc(OC(F)(F)F)cc1`, for which the “hERG current change (%, negative = inhibition) at 10uM” value was -28%. For the molecule `CC1CCCC(C)N1C(=O)CSc1nnc(-c2cccs2)o1` (centres unmarked), the “hERG current change (%, negative = inhibition) at 10uM” value was -17.1%. In the case of `CCOC(=O)c1c(C)nc2c(c1-c1ccccc1)C(=O)c1ccccc1-2` it was -19.8%. In the case of `CCOc1cc(/C=N/Nc2nncc(-c3ccccc3)n2)ccc1O` it was 14.4%; in that of `Cc1ccc(N2C(N)=NC(N)=NC23CCCC3)c(C)c1.Cl`, 9.39%.

`C=CCn1nnnc1SCC(=O)Nc1ccc(C(=O)OC)cc1`: the “hERG current change (%, negative = inhibition) at 10uM” value came out at 2.41%.

On to `CC1=CC(C)(C)N(C(=O)Nc2ccccc2)c2ccccc21`, for which the “hERG current change (%, negative = inhibition) at 10uM” value was 0.993%. For the molecule `CCCCCc1ccc(OCCCC[n+]2ccc(C)cc2)c(CCCCC)c1.[Cl-]`, the “hERG current change (%, negative = inhibition) at 10uM” value was -77%.

`CSc1nc(=S)c2[nH]c(=S)[nH]c2[nH]1`: the “hERG current change (%, negative = inhibition) at 10uM” value amounted to 19.7%. As to `COc1ccccc1-c1oc2ccccc2c1C#CC1(N)CCCCC1`, the “hERG current change (%, negative = inhibition) at 10uM” value is listed as -3.74%.

For the molecule `O=c1c2ccccc2c(C=Nc2ccc(O)cc2)c(O)n1-c1nccs1`, the “hERG current change (%, negative = inhibition) at 10uM” value worked out at 3.26%. Turning to `Cc1nnc(C)n1/N=C/c1ccc(-c2ccccc2)cc1`, the “hERG current change (%, negative = inhibition) at 10uM” value is reported as -23%. With `COc1cc2c(c(OC)c1OC)-c1c(cc3c(c1OC)OCO3)[C@@H](OC(C)=O)[C@H](C)[C@H](C)C2` the figure was -66.8%.
